Experimental data from PubChem BioAssay (NCI).
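These data come from cells grown in 96-well plates and exposed to compound for 48 hours at five concentrations. GI50 marks 50% less growth. At the TGI there is no net growth.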

Test system: NCI-H322M lung
Experiment: NCI-60 cell line screen, 48 h

Compound	GI50 [µM]	TGI [µM]
N#Cc1cccc(/C(N)=N/C(N)=N/c2nc3ccccc3s2)c1	4.33	> 100
CN1CCN(c2ccc(Nc3nc(NCCCNS(=O)(=O)c4cccc(F)c4)c4sccc4n3)cc2)CC1	5	16.9
